The source of these data is PubChem BioAssay AID623919 (The Scripps Research Institute Molecular Screening Center, 2012).

This assay deals with E. coli V66 Hfr conjugational recombination, colony counts. The assay can be described thus: RecBCD-driven recombination inhibition in E. coli, late-stage follow-up, counter-screen for AddAB inhibitor project, V66 E. coli, colony formation, powder samples, 100 µM (AID 623919). As to conditions: at 100 µM; stronger effect = higher value. The essentials:
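Material – E. coli V66 recipient with Hfr donor · Buffer or medium – LB broth for recipient growth with compound · Doses – single 100 µM dose · Times – 1 h recipient growth with compound, then 30 min mating · Measured by – differential plating colony counts · Evaluation – viability-corrected fold reduction of recombination versus DMSO · Control set – DMSO-only culture · Replicates – duplicates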
Background: The purpose of a counterscreen is to sort out artefacts and off-target activity.

A number of entries come with more than one value. This is not the full list of results. An entry can have further records.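 The calls were made as follows: active = recombination in E. coli crosses cut more than 4-fold against the solvent-only control; inactive = cut of 4-fold or less.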 The values listed for one entry are repeated measurements in other runs, samples, wells, individuals or studies. Records carry a tag for their origin. The letters are not those of the source and start again with each entry.

On to `CCn1cc(C(=O)O)c(=O)c2cnc(N3CCN(C(=S)Nc4ccccc4C(F)(F)F)CC3)nc21`, for which the fold reduction of recombination was 6 [sample A] and inactive: 1 [sample B].
